Among the data in article PMC9911399, “Two distinct binding modes provide the RNA-binding protein RbFox with extraordinary sequence specificity” are binding signal values, retold here.

Substitutions are numbered along the chain they refer to; changes in the protein carry UniProt numbers. Some of the results follow.

T1: RBFOX1 RRM (Homo sapiens, UniProt Q9NWB1 109-208)
T1 sequence: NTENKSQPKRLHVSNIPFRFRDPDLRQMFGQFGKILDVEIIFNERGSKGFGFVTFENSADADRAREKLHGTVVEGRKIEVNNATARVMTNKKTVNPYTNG

B1: AAUGUGA (DNA:RNA)
RNA: GGGAGACCGGAAUUCAGAUUGUCCAAUGUGAUUAAAUCCCGUCGUAGCCACCA
DNA 1: CAATCTGAATTCCGGTCTCCC
DNA 2: TGGTGGCTACGACGGGATT
B2: UCCCGAG (DNA:RNA)
RNA: GGGAGACCGGAAUUCAGAUUGUCCUCCCGAGUUAAAUCCCGUCGUAGCCACCA
DNA 1: CAATCTGAATTCCGGTCTCCC
DNA 2: TGGTGGCTACGACGGGATT
B3: UUUCGAG (DNA:RNA)
RNA: B2 RNA with C26U, C27U
DNA 1: CAATCTGAATTCCGGTCTCCC
DNA 2: TGGTGGCTACGACGGGATT
B4: GUCUUGU (DNA:RNA)
RNA: B1 RNA with A25G, A26U, U27C, G28U, A31U
DNA 1: CAATCTGAATTCCGGTCTCCC
DNA 2: TGGTGGCTACGACGGGATT
B5: AAACAGA (DNA:RNA)
RNA: B1 RNA with U27A, G28C, U29A
DNA 1: CAATCTGAATTCCGGTCTCCC
DNA 2: TGGTGGCTACGACGGGATT
B6: CUCAUAC (DNA:RNA)
RNA: B2 RNA with U25C, C26U, C28A, G29U, G31C
DNA 1: CAATCTGAATTCCGGTCTCCC
DNA 2: TGGTGGCTACGACGGGATT
B7: UAUCAGA (DNA:RNA)
RNA: B1 RNA with A25U, G28C, U29A
DNA 1: CAATCTGAATTCCGGTCTCCC
DNA 2: TGGTGGCTACGACGGGATT
B8: GUCGGCA (DNA:RNA)
RNA: B1 RNA with A25G, A26U, U27C, U29G, G30C
DNA 1: CAATCTGAATTCCGGTCTCCC
DNA 2: TGGTGGCTACGACGGGATT
B9: GAUGAGG (DNA:RNA)
RNA: B1 RNA with A25G, U29A, A31G
DNA 1: CAATCTGAATTCCGGTCTCCC
DNA 2: TGGTGGCTACGACGGGATT
B10: AAUCCCG (DNA:RNA)
RNA: B1 RNA with G28C, U29C, G30C, A31G
DNA 1: CAATCTGAATTCCGGTCTCCC
DNA 2: TGGTGGCTACGACGGGATT
B11: ACUCUAC (DNA:RNA)
RNA: B1 RNA with A26C, G28C, G30A, A31C
DNA 1: CAATCTGAATTCCGGTCTCCC
DNA 2: TGGTGGCTACGACGGGATT
B12: GCUCCUA (DNA:RNA)
RNA: B1 RNA with A25G, A26C, G28C, U29C, G30U
DNA 1: CAATCTGAATTCCGGTCTCCC
DNA 2: TGGTGGCTACGACGGGATT
B13: AGAGAGA (DNA:RNA)
RNA: B1 RNA with A26G, U27A, U29A
DNA 1: CAATCTGAATTCCGGTCTCCC
DNA 2: TGGTGGCTACGACGGGATT
B14: UGCAGAA (DNA:RNA)
RNA: B2 RNA with C26G, C28A, G31A
DNA 1: CAATCTGAATTCCGGTCTCCC
DNA 2: TGGTGGCTACGACGGGATT
B15: AUCUGCG (DNA:RNA)
RNA: B2 RNA with U25A, C26U, C28U, A30C
DNA 1: CAATCTGAATTCCGGTCTCCC
DNA 2: TGGTGGCTACGACGGGATT
B16: UCACUGU (DNA:RNA)
RNA: B2 RNA with C27A, G29U, A30G, G31U
DNA 1: CAATCTGAATTCCGGTCTCCC
DNA 2: TGGTGGCTACGACGGGATT
B17: AUCACCU (DNA:RNA)
RNA: B1 RNA with A26U, U27C, G28A, U29C, G30C, A31U
DNA 1: CAATCTGAATTCCGGTCTCCC
DNA 2: TGGTGGCTACGACGGGATT
B18: UAAAUUA (DNA:RNA)
RNA: B1 RNA with A25U, U27A, G28A, G30U
DNA 1: CAATCTGAATTCCGGTCTCCC
DNA 2: TGGTGGCTACGACGGGATT
B19: UAAGACC (DNA:RNA)
RNA: B1 RNA with A25U, U27A, U29A, G30C, A31C
DNA 1: CAATCTGAATTCCGGTCTCCC
DNA 2: TGGTGGCTACGACGGGATT
B20: UGGAAUA (DNA:RNA)
RNA: B1 RNA with A25U, A26G, U27G, G28A, U29A, G30U
DNA 1: CAATCTGAATTCCGGTCTCCC
DNA 2: TGGTGGCTACGACGGGATT
B21: AACUCGA (DNA:RNA)
RNA: B1 RNA with U27C, G28U, U29C
DNA 1: CAATCTGAATTCCGGTCTCCC
DNA 2: TGGTGGCTACGACGGGATT
B22: AUGCCAC (DNA:RNA)
RNA: B2 RNA with U25A, C26U, C27G, G29C, G31C
DNA 1: CAATCTGAATTCCGGTCTCCC
DNA 2: TGGTGGCTACGACGGGATT
B23: AGUUUUG (DNA:RNA)
RNA: B1 RNA with A26G, G28U, G30U, A31G
DNA 1: CAATCTGAATTCCGGTCTCCC
DNA 2: TGGTGGCTACGACGGGATT
B24: GCCCGUC (DNA:RNA)
RNA: B2 RNA with U25G, A30U, G31C
DNA 1: CAATCTGAATTCCGGTCTCCC
DNA 2: TGGTGGCTACGACGGGATT
B25: AUAUCGC (DNA:RNA)
RNA: B1 RNA with A26U, U27A, G28U, U29C, A31C
DNA 1: CAATCTGAATTCCGGTCTCCC
DNA 2: TGGTGGCTACGACGGGATT
B26: CCGCGUG (DNA:RNA)
RNA: B2 RNA with U25C, C27G, A30U
DNA 1: CAATCTGAATTCCGGTCTCCC
DNA 2: TGGTGGCTACGACGGGATT
B27: AUGGUCA (DNA:RNA)
RNA: B1 RNA with A26U, U27G, G30C
DNA 1: CAATCTGAATTCCGGTCTCCC
DNA 2: TGGTGGCTACGACGGGATT
B28: GAGAAAC (DNA:RNA)
RNA: B1 RNA with A25G, U27G, G28A, U29A, G30A, A31C
DNA 1: CAATCTGAATTCCGGTCTCCC
DNA 2: TGGTGGCTACGACGGGATT
B29: UCCGGCA (DNA:RNA)
RNA: B2 RNA with C28G, A30C, G31A
DNA 1: CAATCTGAATTCCGGTCTCCC
DNA 2: TGGTGGCTACGACGGGATT
B30: AUGUUUU (DNA:RNA)
RNA: B1 RNA with A26U, U27G, G28U, G30U, A31U
DNA 1: CAATCTGAATTCCGGTCTCCC
DNA 2: TGGTGGCTACGACGGGATT
B31: GCCAGCU (DNA:RNA)
RNA: B2 RNA with U25G, C28A, A30C, G31U
DNA 1: CAATCTGAATTCCGGTCTCCC
DNA 2: TGGTGGCTACGACGGGATT

The target in the assay is T1, RBFOX1 RRM. As to the kind of experiment: EMSA; HiTS-Eq, 1 nM pool, 10 min; buffer printed only for the single-RNA assays: 10 mM Tris pH 7.5, 150 mM NaCl, 3.4 mM EDTA, 0.001% NP-40, 30 C. As to conditions: tags: His6 N-terminal (pET28a); label: 5' 32P. Put shortly:
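Purified wild-type or mutant RbFox RRM at increasing concentrations was equilibrated with 1 nM of 5′-radiolabelled RNA carrying 7 randomized nucleotides for 10 min in 50 µL. Unbound RNA was separated by 8% native PAGE and sequenced. Relative association constants came from read-count changes of each RNA species compared with the control reaction, normalised to the cognate motif.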
For orientation: In EMSA bound probe runs differently from free probe, usually more slowly.
Consider B1, for which the binding signal was 0.0087 KA relative to UGCAUGU.

B2: the binding signal is 0.00733 KA relative to UGCAUGU. Take B3: the binding signal is 0.0142 KA relative to UGCAUGU. With B4 the figure was 0.0251 KA relative to UGCAUGU; with B5, 0.000181 KA relative to UGCAUGU.

For the molecule B6, the binding signal was 0.000607 KA relative to UGCAUGU.

Consider B7, for which the binding signal is 0.0158 KA relative to UGCAUGU.

As for B8, the binding signal is 0.0205 KA relative to UGCAUGU.

B9: the binding signal was 0.0162 KA relative to UGCAUGU. Regarding B10, the binding signal is 0.00284 KA relative to UGCAUGU.

Consider B11, for which the binding signal was 0.00136 KA relative to UGCAUGU.

On to B12, for which the binding signal was 0.00339 KA relative to UGCAUGU.

Consider B13, for which the binding signal was 0.0104 KA relative to UGCAUGU. As for B14, the binding signal is 0.0113 KA relative to UGCAUGU. With B15 the figure was 0.0148 KA relative to UGCAUGU; with B16, 0.00833 KA relative to UGCAUGU; with B17, 0.00026 KA relative to UGCAUGU.

As to B18, the binding signal was 0.00608 KA relative to UGCAUGU.

For the molecule B19, the binding signal is 0.00474 KA relative to UGCAUGU. With B20 the figure was 0.0138 KA relative to UGCAUGU.

As to B21, the binding signal is 0.00597 KA relative to UGCAUGU. For the molecule B22, the binding signal is 0.0065 KA relative to UGCAUGU.

For B23, the binding signal is 0.0174 KA relative to UGCAUGU.

On to B24, for which the binding signal is 0.0217 KA relative to UGCAUGU. As to B25, the binding signal was 0.00275 KA relative to UGCAUGU. For B26, the binding signal is 0.0193 KA relative to UGCAUGU. With B27, the binding signal was 0.0116 KA relative to UGCAUGU. Take B28: the binding signal was 0.00961 KA relative to UGCAUGU.

On to B29, for which the binding signal is 0.0141 KA relative to UGCAUGU. As to B30, the binding signal was 0.00776 KA relative to UGCAUGU.

As for B31, the binding signal is 0.0107 KA relative to UGCAUGU.
